Experimental data published in the BET-seq Pho4 binding data (Le et al. 2018).
The list shows a part of the results. The energies were worked out here from pooled read counts, against the library average; single values are noisy.

target: T1, Pho4 (S. cerevisiae) (UniProt P07270); experiment: relative binding free energy (BET-seq); higher = weaker binding; details: reference: library average
T1 sequence: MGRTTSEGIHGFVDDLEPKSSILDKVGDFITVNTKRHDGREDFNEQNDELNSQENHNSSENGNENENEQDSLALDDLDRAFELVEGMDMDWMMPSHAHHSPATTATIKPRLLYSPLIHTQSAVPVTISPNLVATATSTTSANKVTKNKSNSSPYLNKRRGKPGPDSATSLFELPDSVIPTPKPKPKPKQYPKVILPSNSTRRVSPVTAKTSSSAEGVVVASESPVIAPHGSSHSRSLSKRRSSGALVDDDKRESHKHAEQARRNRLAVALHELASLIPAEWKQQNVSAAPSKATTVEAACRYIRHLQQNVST

Sequence	relative binding free energy [kcal/mol]
TGTTACACGTGATCTG	0.06
CTCTACACGTGGGTGT	-0.04
GAAGTCACGTGGTAAG	0.07
TGGCTCACGTGTTTGG	0.16
TGTTGCACGTGGGTAT	-0.08
GGATTCACGTGATATG	0.33
TAATTCACGTGTGGGT	0.21
TACATCACGTGTATTG	0.14
CTCGGCACGTGGGGCT	-0.14
ATTTCCACGTGGGGGC	0
AATATCACGTGAGGGC	0.53
GGTTTCACGTGTTCTT	0.29
GGTGGCACGTGAGCGA	0.1
TATGGCACGTGGCGCG	-0.15
TATGGCACGTGGCGCA	-0.17
TCTGTCACGTGGTGCG	-0.12
TAGGTCACGTGGTCGC	-0.08
CATGGCACGTGGGTGA	-0.18
TTGTGCACGTGCTTAA	-0.12
AAGAGCACGTGGAGGC	-0.15
GTAATCACGTGTAATT	0.29
TGTTGCACGTGTATCT	-0.03
TTAGACACGTGCTGGG	-0.21
TAAAGCACGTGATATT	-0.01
ATGAACACGTGGAGAG	0.14
GATATCACGTGATGTA	0.39

Sequence	relative binding free energy [kcal/mol]
AATTACACGTGGGCTT	-0.07
CTTTGCACGTGTTATG	-0.03
GATGGCACGTGGCCGG	-0.03
GATGTCACGTGTGTAA	0.2
CATGGCACGTGGTGGT	-0.09
TTTCACACGTGATAGT	0.24
GGGGACACGTGGATAG	0.06
GTCCGCACGTGGGAGG	-0.26
CTGGGCACGTGAAGGC	0.11
TGGGTCACGTGCGGCG	-0.01
GTAAGCACGTGGAATG	-0.03
GTATACACGTGTAGGA	-0.03
TCGGGCACGTGAGTGG	0.17
CGTAGCACGTGGTGAT	-0.26
AAGTTCACGTGGAATG	0.19
GGGCTCACGTGTAGAT	0.37
AGTTTCACGTGGTTCT	0.31
CAACTCACGTGGTAGG	0.41
AGTGGCACGTGGGAGA	-0.2
TAGTTCACGTGACTGG	0.31
CTATACACGTGGTGGT	-0.18
GTATACACGTGGGGAG	0.01
GTTCTCACGTGGTCTG	0.1
GTGGGCACGTGTTAAG	-0.06
CTTTACACGTGCGTGT	0.06
TGGCGCACGTGACGGG	-0.02

Sequence	relative binding free energy [kcal/mol]
TGTGTCACGTGTGTAA	0.07
GAATCCACGTGGTGGT	0.04
TAGTTCACGTGTGTCG	0.27
AGGGGCACGTGCTAGG	-0.24
TATCTCACGTGTTGTT	0.12
CTTTACACGTGTGTGT	0.21
TTAACCACGTGGTAGG	-0.09
TCATGCACGTGTGTTG	0.04
ATTTGCACGTGGTTAC	0
ATTGTCACGTGCGGTT	0.03
TTAGGCACGTGATTTT	0.03
GTGGTCACGTGTCATT	0.12
GGCGTCACGTGCTAGG	0.02
GAAGACACGTGGGTAT	-0.1
ACTGGCACGTGTGTTG	-0.12
GTGACCACGTGTAAGT	0.22
TGTCGCACGTGTTATT	0.03
GAGCGCACGTGAGGGT	0.1
GGTGACACGTGGACGT	-0.03
CTAGGCACGTGTATAG	-0.02
GGTGTCACGTGGAGGA	0.15
AGATGCACGTGGCAGG	-0.26
TCTTACACGTGTTAGG	0.12
TAGTTCACGTGACGGA	0.4
CGAGGCACGTGTGCGT	-0.16
GGGTCCACGTGTGGGG	0.17

Sequence	relative binding free energy [kcal/mol]
TTTGGCACGTGTCATA	-0.21
GCGTTCACGTGTGGGA	0.24
CTTGTCACGTGATTGA	0.22
GTTCTCACGTGGTTTT	0.19
GCTATCACGTGGGGTT	0.06
GAGTACACGTGTATGT	0.03
TACGGCACGTGGTGAT	-0.23
GGACACACGTGGAGGG	-0.09
TGAGTCACGTGAATTT	0.37
AACCGCACGTGGGTGG	-0.29
GTTTGCACGTGGTGAT	0.03
AATAGCACGTGGGGGT	-0.31
GATTTCACGTGACTGG	0.35
TCAAGCACGTGGGTGT	-0.33
TAGGGCACGTGGTACT	-0.23
TTTCACACGTGAAGGT	0.32
TAGGCCACGTGGGGGC	-0.19
TGAGGCACGTGACGAT	0
TAATACACGTGGTGGA	0.08
TATCTCACGTGGTATT	0.08
TAGGGCACGTGGCATG	-0.26
GTAGGCACGTGGTGTG	-0.16
GACGGCACGTGTTAGG	0.04
GTTAACACGTGGTGAG	-0.08
TTAGACACGTGGTGTG	0.03
AAGGCCACGTGTGGTG	-0.1

Sequence	relative binding free energy [kcal/mol]
TGAAACACGTGGTGGG	0.04
GGGCACACGTGGGGTG	-0.25
TGAGGCACGTGTTATG	-0.08
TTTAGCACGTGGATCG	0.06
GTTTTCACGTGGAACA	0.42
TTTATCACGTGCTGAT	-0.02
CGTGTCACGTGATGTT	0.24
TATATCACGTGATGGA	0.24
GTGTACACGTGAGTAA	0.45
GAGTGCACGTGTAGTC	0.09
AAGTTCACGTGGGGTC	0.26
GTTACCACGTGAAGGG	0.27
CCGGTCACGTGGGTGA	-0.13
ATTATCACGTGAGATG	0.35
AAGAACACGTGGGGGA	-0.08
ATAGTCACGTGGTAGG	0.02
TTTATCACGTGATTCT	0.07
GTGTACACGTGGGCGT	-0.06
AGTCACACGTGTTTAG	0.21
GTAGGCACGTGTGCAT	-0.01
ATAGGCACGTGTGGTA	-0.17
GCATGCACGTGGGGGA	-0.06
GATGTCACGTGAGTCG	0.4
GTGGACACGTGTAGCG	0.13
GTACACACGTGTTGTA	0.11
GGATGCACGTGTGACT	0.09

Sequence	relative binding free energy [kcal/mol]
TGATTCACGTGTGGAG	0.27
TATGTCACGTGTTTAT	0.04
GCGATCACGTGTGGGT	0.15
CTGGACACGTGGAAGG	-0.08
AGATTCACGTGTGTAC	0.34
TCGTCCACGTGTGTAT	0.22
ATCTTCACGTGGGTGA	0.12
CGGGACACGTGTTATG	-0.04
GATAACACGTGATTGG	0.21
TAATGCACGTGTGGAT	-0.05
ATTGCCACGTGATGTG	0.09
GTATTCACGTGGTCTA	0.37
GTATTCACGTGTGGGT	0.37
AAAAGCACGTGGGGAG	-0.17
AATGTCACGTGGGTCA	-0.05
TATTCCACGTGGTGGT	0.09
TTGGGCACGTGGCCTT	-0.21
TTATGCACGTGAGTGA	0.13
CAGGCCACGTGATGGG	0.06
ACTTTCACGTGGGCGG	0.06
TATACCACGTGGGGTA	-0.23
GGCCTCACGTGGTAGG	0.28
GTGAACACGTGGTATA	0.02
TCAGTCACGTGTATGT	0.14
ATTGGCACGTGGTACA	-0.25
TTACACACGTGAGTGG	0.14

Sequence	relative binding free energy [kcal/mol]
ATGTGCACGTGTAAAT	0.06
AGGGACACGTGATTAT	0.21
TTTTTCACGTGGGGTT	0.3
CGATGCACGTGTGTAT	-0.03
GAGTTCACGTGGGTCA	0.14
AGGTGCACGTGAGGAG	0.21
GGAGTCACGTGGTGAT	0.03
TATTCCACGTGTGGGC	0.27
TCTCTCACGTGGGGTT	0.05
GCGTCCACGTGTGGTT	0.06
TTTGACACGTGTCGAG	0.13
TGATTCACGTGCTGTT	0.35
CTAGGCACGTGATGGA	0.15
AGAGTCACGTGTAAGA	0.24
TTCTACACGTGATGTG	0.06
CTGGTCACGTGTTGGA	0.08
CGTGTCACGTGTGAGT	0.05
GTGGGCACGTGTAAAA	0.14
GAGGTCACGTGCTAAT	0.39
TGCTACACGTGGAGGT	0.02
GTAGTCACGTGTAGTC	0.17
GTTCGCACGTGGCGTG	-0.17
TACATCACGTGATGTG	0.12
ACGTGCACGTGGGCTG	-0.15
GTTGACACGTGCAGGC	0.12
AGGGTCACGTGTCGTT	0.15

Sequence	relative binding free energy [kcal/mol]
GGTTTCACGTGACATG	0.2
GGACCCACGTGGGTTG	-0.09
TTTCTCACGTGCTGGT	0.22
GGAGTCACGTGTGTAC	0.2
TGTGGCACGTGCAAGT	-0.14
GTGGTCACGTGTGTAT	0.28
AAGCTCACGTGTTGGT	0.23
TGGAGCACGTGGTGCA	-0.11
AGCAGCACGTGGGGGT	-0.28
GTGATCACGTGAATGT	0.09
TAGGTCACGTGGGGCC	-0.04
TCTGGCACGTGGAGAT	-0.13
TACTTCACGTGTTTAG	0.27
GTGGACACGTGCGGGT	0.05
ATTTTCACGTGTTAGC	0.29
GTGGTCACGTGGGTAT	0.04
CCTGTCACGTGTAGGT	0.19
GACGGCACGTGGATGG	-0.06
AGGCTCACGTGGTTTC	0.37
TGAAGCACGTGGATAG	-0.11
CGTGTCACGTGGGTAT	-0.1
TAGTCCACGTGTGGTT	0.18
TGGTCCACGTGTGTTC	0.12
TATATCACGTGTCGCG	0.28
TGGTACACGTGGAATT	0.27
GGTTGCACGTGTGAGC	0.16

Sequence	relative binding free energy [kcal/mol]
TGGAGCACGTGTAGAA	-0.12
CGGGGCACGTGGGCGA	-0.18
GAGGGCACGTGGTATA	-0.18
CATTACACGTGGTGGT	0.01
ATAAGCACGTGCTTTA	0.01
TGTAGCACGTGGCTAG	-0.17
TGCCGCACGTGGGAGG	-0.32
TGTCACACGTGGTGTT	-0.01
GTTGACACGTGAGGCG	0.19
GTGGTCACGTGTAGAC	0.23
TTTTACACGTGGTTCG	0.1
TATTACACGTGGGTCG	-0.15
AATAGCACGTGTAGGG	-0.11
TGTAACACGTGTTAAT	0.04
AGATTCACGTGATGTT	0.26
GGTTACACGTGTGATT	0.27
TGATTCACGTGGGCCT	0.12
TTATGCACGTGATACG	-0.02
GACTGCACGTGTTGTA	0.12
GGCGCCACGTGAGGTG	0.1
GGAAGCACGTGTCGGT	0.13
ATGCTCACGTGTTATA	0.19
